Here are results for 141 sequences from the supplement of paper PMC3724861.

The other results are listed elsewhere or left out.

For the experiment, the system named is T1, Caupolican (Caup) homeodomain DNA-binding domain.
T1 sequence: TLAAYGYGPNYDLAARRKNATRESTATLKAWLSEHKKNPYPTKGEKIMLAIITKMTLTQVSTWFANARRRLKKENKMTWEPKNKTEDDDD
In words: PBM E-score (8-mer, recovered from the published 9-mer minima) (E-score (dimensionless, -0.5 to 0.5)); Drosophila protein; higher = stronger relative binding preference, active = 0.31 or more. Put shortly: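 Caup's homeodomain DNA-binding domain (residues 214-303) was made by in vitro transcription and translation and applied at 100 nM to custom-designed protein binding microarrays. Each value is an enrichment score that gives relative binding preference for a short DNA word, with higher meaning stronger. The 8-mer values were recovered from published 9-mer scores, each of which was the minimum of its two constituent 8-mer scores. A cutoff of 0.31 marks candidate sites.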
With CTAATTTC, the “PBM E-score” value is inactive: 0.051.

Consider CTGTGGGA, for which the “PBM E-score” value is inactive: -0.126.

On to CACACGGG, for which the “PBM E-score” value is inactive: -0.0095.

Regarding AAGCAAAA, the “PBM E-score” value is inactive: 0.0629.

GCTTCATA: the “PBM E-score” value is inactive: -0.0776.

As to CTCGAAAC, the “PBM E-score” value was inactive: 0.0396.

For the sequence CCGCCCCC, the “PBM E-score” value was inactive: -0.389.

On to CAGCTCCA, for which the “PBM E-score” value was inactive: -0.0944.

On to AATACAAG, for which the “PBM E-score” value is active: 0.346.

For the sequence CAAACAGG, the “PBM E-score” value was inactive: 0.169.

Regarding CAGCGGGC, the “PBM E-score” value was inactive: -0.237.

With AAAAACTT, the “PBM E-score” value was inactive: 0.0649.

For the sequence AGTTTGGC, the “PBM E-score” value was inactive: -0.0592.

On to TCAAGACA, for which the “PBM E-score” value was inactive: 0.121.

On to CCAAGTCA, for which the “PBM E-score” value is inactive: -0.0457.

AATAAAAG: the “PBM E-score” value was inactive: -0.0307.

On to AATCATGA, for which the “PBM E-score” value is inactive: 0.164.

Consider CCTGCTCC, for which the “PBM E-score” value was inactive: -0.0699.

Turning to TCGCACGA, the “PBM E-score” value is inactive: 0.0172.

GGGACTCA: the “PBM E-score” value is inactive: -0.214.

Turning to CGGGCCCC, the “PBM E-score” value was inactive: -0.287.

As for AGGCGCCA, the “PBM E-score” value was inactive: -0.174.

Consider GGTGACAC, for which the “PBM E-score” value was inactive: 0.172.

Consider CCGAGGGA, for which the “PBM E-score” value is inactive: -0.187.

Consider ACCAGATG, for which the “PBM E-score” value is inactive: 0.121.

For CCAGACCC, the “PBM E-score” value was inactive: -0.206.

As for CAGATTCG, the “PBM E-score” value was inactive: 0.00506.

Turning to AACTCGTA, the “PBM E-score” value was inactive: 0.163.

Turning to CGCTCTGC, the “PBM E-score” value was inactive: -0.177.

For CATAGCGG, the “PBM E-score” value is inactive: -0.174.

On to ATTTCCTC, for which the “PBM E-score” value is inactive: -0.0253.

As to ATCATGGA, the “PBM E-score” value was inactive: 0.00242.

Consider GCCGCGGC, for which the “PBM E-score” value was inactive: -0.324.

Take AACGCACA: the “PBM E-score” value is inactive: 0.0456.

Regarding CGAGCAGA, the “PBM E-score” value was inactive: -0.116.

For the sequence AAGTTTGC, the “PBM E-score” value is inactive: 0.0221.

CGAGAAAG: the “PBM E-score” value is inactive: -0.0642.

For the sequence AACTTCCC, the “PBM E-score” value was inactive: -0.0836.

Turning to GCGACCGA, the “PBM E-score” value is inactive: -0.108.

CTTCTGTA: the “PBM E-score” value is inactive: 0.115.

Consider CAGTTTCG, for which the “PBM E-score” value was inactive: -0.0432.

Take GGTCCGAC: the “PBM E-score” value was inactive: -0.0703.

For AATGGAGC, the “PBM E-score” value was inactive: -0.0674.

Take GGGTTAAA: the “PBM E-score” value was inactive: 0.00529.

Consider TAACCGCA, for which the “PBM E-score” value is inactive: 0.0101.

AGGAATTA: the “PBM E-score” value is no less than 0.125.

Take CGATCAAA: the “PBM E-score” value is inactive: -0.00998.

On to CCTCCCCG, for which the “PBM E-score” value is inactive: -0.23.

With AGAAGAGA, the “PBM E-score” value was inactive: -0.078.

As for ATTTTTCA, the “PBM E-score” value is inactive: 0.0919.

For the sequence AAGAAGTC, the “PBM E-score” value is inactive: -0.0128.

Take CATGCGCG: the “PBM E-score” value is inactive: -0.0216.

Consider ATCGATCC, for which the “PBM E-score” value was inactive: 0.00323.

With CTACGAGA, the “PBM E-score” value was inactive: 0.00553.

On to ATGCTTGG, for which the “PBM E-score” value was inactive: 0.0118.

Turning to AGATGCAT, the “PBM E-score” value is inactive: 0.0765.

As to CAACTCAG, the “PBM E-score” value was inactive: -0.105.

Consider GGATATTA, for which the “PBM E-score” value is inactive: 0.117.

Take ACCTTACG: the “PBM E-score” value is inactive: -0.047.

In the case of CCGTGCGC, the “PBM E-score” value is inactive: -0.175.

On to AGGAGACC, for which the “PBM E-score” value is inactive: -0.207.

In the case of ATGGCGCG, the “PBM E-score” value was inactive: -0.163.

With GCAGCCCC, the “PBM E-score” value was inactive: -0.268.

In the case of CGTGTGCC, the “PBM E-score” value was inactive: -0.143.

Consider ATGGCTAG, for which the “PBM E-score” value is inactive: -0.0196.

Consider ATAGCTTA, for which the “PBM E-score” value is inactive: 0.0325.

On to AACGTCGG, for which the “PBM E-score” value is inactive: -0.0685.

CATGATGC: the “PBM E-score” value was inactive: 0.0535.

Take GGTAAGAA: the “PBM E-score” value was inactive: 0.0246.

Take ATCCTCTA: the “PBM E-score” value was inactive: -0.00764.

For the sequence GCTAGCCC, the “PBM E-score” value was inactive: -0.215.

Take TCGACAAA: the “PBM E-score” value was inactive: 0.159.

As to ATTTTCAG, the “PBM E-score” value is inactive: 0.105.

As for CTCCCCAC, the “PBM E-score” value was inactive: -0.275.

Regarding ATTCGTAG, the “PBM E-score” value is inactive: 0.0535.

On to CGAGGCTC, for which the “PBM E-score” value is inactive: -0.207.

CACGCGGG: the “PBM E-score” value is inactive: -0.105.

Consider GTAAACCA, for which the “PBM E-score” value is inactive: 0.119.

On to CTAGCGGA, for which the “PBM E-score” value was inactive: -0.144.

Turning to AACCGAGA, the “PBM E-score” value was inactive: -0.0191.

On to AGTAATGC, for which the “PBM E-score” value is inactive: 0.0573.

AGGTACGC: the “PBM E-score” value is inactive: -0.0652.

For CCTTATCG, the “PBM E-score” value was inactive: 0.0629.

For GCTTCGCC, the “PBM E-score” value was inactive: -0.257.

With AGCCGAAT, the “PBM E-score” value is inactive: -0.0412.

In the case of ACGTATTC, the “PBM E-score” value is inactive: 0.0684.

In the case of AACGCTGG, the “PBM E-score” value was inactive: -0.0926.

Consider AAGATAGA, for which the “PBM E-score” value was inactive: 0.0418.

Regarding CAGGTATA, the “PBM E-score” value is inactive: 0.0792.

As to GGCCCCAA, the “PBM E-score” value is inactive: -0.297.

For the sequence CGCTAGGC, the “PBM E-score” value is inactive: -0.251.

Consider CATATCAA, for which the “PBM E-score” value is inactive: 0.174.

In the case of TACGTACA, the “PBM E-score” value was inactive: 0.286.

Regarding AAGTCAGG, the “PBM E-score” value is inactive: -0.109.

As to ACCAGCTG, the “PBM E-score” value is inactive: -0.0781.

ACTTGCGG: the “PBM E-score” value is inactive: -0.0926.

As to ACTGCTGC, the “PBM E-score” value is inactive: -0.0981.

Regarding GTCGGAGA, the “PBM E-score” value was inactive: -0.0896.

CTTGACGC: the “PBM E-score” value is inactive: -0.178.

On to TCCCCTAA, for which the “PBM E-score” value is inactive: -0.0939.

Turning to TCGCAAGA, the “PBM E-score” value is inactive: -0.0509.

For the sequence GTGCAAAA, the “PBM E-score” value was inactive: 0.0367.

Take GAACCACC: the “PBM E-score” value was inactive: 0.0103.

For AGTCAGCG, the “PBM E-score” value was inactive: -0.144.

Take ATCCAGAG: the “PBM E-score” value is inactive: 0.0191.

On to TCCAGGAA, for which the “PBM E-score” value was inactive: -0.0556.

Regarding CCATAGGA, the “PBM E-score” value is inactive: 0.00212.

In the case of AAATTCAG, the “PBM E-score” value is inactive: 0.0174.

CTTTTGCA: the “PBM E-score” value is inactive: -0.00815.

Take CACCCAAA: the “PBM E-score” value was inactive: -0.042.

As to CTGCGTAA, the “PBM E-score” value is inactive: -0.0276.

For ACCAATAA, the “PBM E-score” value was inactive: 0.0667.

Consider CATTGCAC, for which the “PBM E-score” value is inactive: 0.135.

For the sequence CAATTCCC, the “PBM E-score” value was inactive: 0.0386.

For TGCGTCAA, the “PBM E-score” value is inactive: -0.0751.

Take TCCGACGA: the “PBM E-score” value was no less than 0.0504.

For the sequence GATTGTCA, the “PBM E-score” value was inactive: 0.13.

On to ATAACCCA, for which the “PBM E-score” value is inactive: -0.0198.

Consider AGAGAGAG, for which the “PBM E-score” value is inactive: -0.0528.

Consider CCGTTGGA, for which the “PBM E-score” value is inactive: -0.133.

On to AACCTAGC, for which the “PBM E-score” value was inactive: -0.0443.

Take CGGAGGGC: the “PBM E-score” value was inactive: -0.286.

In the case of CTTCAATC, the “PBM E-score” value was inactive: -0.028.

For ACATTAAT, the “PBM E-score” value was inactive: 0.232.

As to ACCCTCGA, the “PBM E-score” value was inactive: -0.0476.

Consider AAAATGAC, for which the “PBM E-score” value was inactive: 0.0699.

Regarding AAGCTGTA, the “PBM E-score” value is no less than 0.166.

On to ATTGAGCA, for which the “PBM E-score” value is no less than 0.103.

For the sequence AGAACCCT, the “PBM E-score” value is inactive: -0.163.

Turning to CTCCTAGA, the “PBM E-score” value is inactive: -0.0555.

For CAAATAGA, the “PBM E-score” value was inactive: 0.127.

Regarding AGCTGTTA, the “PBM E-score” value is inactive: 0.151.

Consider GTACAAGA, for which the “PBM E-score” value is active: 0.418.

CTATTGCA: the “PBM E-score” value was inactive: 0.113.

Take ACCTGTGG: the “PBM E-score” value is inactive: -0.146.

For the sequence ACATGACT, the “PBM E-score” value was active: 0.374.

CGCAGTCA: the “PBM E-score” value was inactive: -0.0409.

Consider ACCGTCGC, for which the “PBM E-score” value is inactive: -0.151.

Regarding ACGCATAC, the “PBM E-score” value is inactive: 0.0922.

Regarding CAGTTCCC, the “PBM E-score” value is inactive: -0.168.

CAGTTGGG: the “PBM E-score” value was inactive: -0.107.
